According to the supplement of paper PMC10037445:
Over roughly 2,900 compounds, “NF-kB SEAP reporter activity, fold change vs agonist alone” has its median near 0.99; the highest 2% begin near 2.6. The list shows a part of the results.

Key:
RAW-Dual [1] = test: NF-kB SEAP reporter activity, fold change vs agonist alone; higher = enhanced NF-kB activity; conditions: library stock concentration (final ~1000-fold dilution): 10 mM
In short: (§1)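 Library stock was pin-tooled at 50 nL into 384-well plates of RAW-Dual macrophages (50,000 cells/well, DMEM), followed 1 h later by a PRR agonist, and the cells were kept at 37 °C, 5% CO2. Supernatant collected after 20 hours was read for IRF by QuantiLuc luminescence and for NF-κB by QuantiBlue absorbance at 620 nm. Reporter activity is fold change over agonist-alone wells, and a well counted as cytotoxic when its IncuCyte confluency was below 70% of agonist controls in both mask sets.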

RAW-Dual [2] = test: NF-kB SEAP reporter activity, fold change vs agonist alone; cytotoxicity flag (confluency mask): not cytotoxic; higher = enhanced NF-kB activity
In short: as §1

RAW-Dual [3] = test: NF-kB SEAP reporter activity, fold change vs agonist alone; cytotoxicity flag (confluency mask): cytotoxic (confluency <70% of control); higher = enhanced NF-kB activity
In short: as §1

[4] = cytotoxicity flag (confluency mask): not cytotoxic, agonist: Imiquimod (TLR7) […]
[5] = cytotoxicity flag (confluency mask): not cytotoxic, agonist: MPLA (TLR4) […]
[6] = agonist: ODN 1826 (TLR9) 0.5 ug/mL
[7] = agonist: Pam2CSK4 (TLR2/6) 0.1 ug/mL
[8] = agonist: Pam3CSK4 (TLR2/1) 0.1 ug/mL

## CC(C)NCC(O)COc1ccc(COCCOC(C)C)cc1.O=C(O)/C=C/C(=O)O (stereo not drawn)
RAW-Dual [1]; [4]
  NF-kB SEAP reporter activity: 0.869
RAW-Dual [1]; [5]
  NF-kB SEAP reporter activity: 1.02

## CC(C)NCC(O)COc1ccc(COCCOC(C)C)cc1.O=C(O)/C=C/C(=O)O (stereo not drawn) (library stock concentration (final ~1000-fold dilution): 10 mM)
RAW-Dual [2]; agonist: LPS (TLR4) 0.1 ug/mL
  NF-kB SEAP reporter activity: 1.05
RAW-Dual [2]; [6]
  NF-kB SEAP reporter activity: 0.873
RAW-Dual [2]; [7]
  NF-kB SEAP reporter activity: 0.984
RAW-Dual [2]; [8]
  NF-kB SEAP reporter activity: 1.03

## CC(Nc1nc(NC(C)C(F)(F)F)nc(-c2cccc(Cl)n2)n1)C(F)(F)F (stereo not drawn) (library stock concentration (final ~1000-fold dilution): 10 mM)
RAW-Dual [2]; agonist: LPS (TLR4) 0.1 ug/mL
  NF-kB SEAP reporter activity: 1.26
RAW-Dual [2]; [6]
  NF-kB SEAP reporter activity: 1.18
RAW-Dual [2]; [7]
  NF-kB SEAP reporter activity: 0.998
RAW-Dual [2]; [8]
  NF-kB SEAP reporter activity: 1.09

## CC(Nc1nc(NC(C)C(F)(F)F)nc(-c2cccc(Cl)n2)n1)C(F)(F)F (stereo not drawn)
RAW-Dual [1]; [4]
  NF-kB SEAP reporter activity: 1.04
RAW-Dual [1]; [5]
  NF-kB SEAP reporter activity: 1.11

## COc1ccc2cc1Oc1ccc(cc1)CC1c3cc(c(OC)cc3CCN1C)Oc1c(OC)c(OC)cc3c1C(C2)N(C)CC3 (stereo not drawn) (library stock concentration (final ~1000-fold dilution): 10 mM)
RAW-Dual [2]; agonist: LPS (TLR4) 0.1 ug/mL
  NF-kB SEAP reporter activity: 1.82
RAW-Dual [2]; [6]
  NF-kB SEAP reporter activity: 0.93
RAW-Dual [2]; [7]
  NF-kB SEAP reporter activity: 1.21
RAW-Dual [2]; [8]
  NF-kB SEAP reporter activity: 0.915

## COc1ccc2cc1Oc1ccc(cc1)CC1c3cc(c(OC)cc3CCN1C)Oc1c(OC)c(OC)cc3c1C(C2)N(C)CC3 (stereo not drawn)
RAW-Dual [1]; [4]
  NF-kB SEAP reporter activity: 0.873
RAW-Dual [1]; [5]
  NF-kB SEAP reporter activity: 0.936

## COc1cc(C2Oc3cc(C4Oc5cc(O)cc(O)c5C(=O)C4O)ccc3OC2CO)ccc1O (stereo not drawn) (library stock concentration (final ~1000-fold dilution): 10 mM)
RAW-Dual [2]; agonist: LPS (TLR4) 0.1 ug/mL
  NF-kB SEAP reporter activity: 1.77
RAW-Dual [2]; [6]
  NF-kB SEAP reporter activity: 1.18
RAW-Dual [2]; [7]
  NF-kB SEAP reporter activity: 0.973
RAW-Dual [2]; [8]
  NF-kB SEAP reporter activity: 0.954

## COc1cc(C2Oc3cc(C4Oc5cc(O)cc(O)c5C(=O)C4O)ccc3OC2CO)ccc1O (stereo not drawn)
RAW-Dual [1]; [4]
  NF-kB SEAP reporter activity: 0.843
RAW-Dual [1]; [5]
  NF-kB SEAP reporter activity: 1.21

## CC1(C)CC[C@]2(C(=O)n3ccnc3)CC[C@]3(C)[C@H](C(=O)C=C4[C@@]5(C)C=C(C#N)C(=O)C(C)(C)[C@@H]5CC[C@]43C)[C@@H]2C1 (library stock concentration (final ~1000-fold dilution): 10 mM)
RAW-Dual [2]; agonist: LPS (TLR4) 0.1 ug/mL
  NF-kB SEAP reporter activity: 0.311
RAW-Dual [2]; [6]
  NF-kB SEAP reporter activity: 0.196
RAW-Dual [2]; [7]
  NF-kB SEAP reporter activity: 0.0777
RAW-Dual [2]; [8]
  NF-kB SEAP reporter activity: 0.202

## CC1(C)CC[C@]2(C(=O)n3ccnc3)CC[C@]3(C)[C@H](C(=O)C=C4[C@@]5(C)C=C(C#N)C(=O)C(C)(C)[C@@H]5CC[C@]43C)[C@@H]2C1
RAW-Dual [1]; [4]
  NF-kB SEAP reporter activity: 0.139
RAW-Dual [1]; [5]
  NF-kB SEAP reporter activity: 0.261

## CC(C)c1ccc(NC(=O)Cn2cnc3c2c(=O)n(C)c(=O)n3C)cc1
RAW-Dual [1]; [4]
  NF-kB SEAP reporter activity: 1.04
RAW-Dual [1]; [5]
  NF-kB SEAP reporter activity: 1.13

## CC(C)c1ccc(NC(=O)Cn2cnc3c2c(=O)n(C)c(=O)n3C)cc1 (library stock concentration (final ~1000-fold dilution): 10 mM)
RAW-Dual [2]; agonist: LPS (TLR4) 0.1 ug/mL
  NF-kB SEAP reporter activity: 1.3
RAW-Dual [2]; [6]
  NF-kB SEAP reporter activity: 1.05
RAW-Dual [2]; [7]
  NF-kB SEAP reporter activity: 1.07
RAW-Dual [2]; [8]
  NF-kB SEAP reporter activity: 1.34

## C=CC[N+]1(C2CC3C4CCC5CC(O)C(N6CCOCC6)CC5(C)C4CCC3(C)C2OC(C)=O)CCCC1 (stereo not drawn)
RAW-Dual [1]; [4]
  NF-kB SEAP reporter activity: 0.925
RAW-Dual [1]; [5]
  NF-kB SEAP reporter activity: 0.94

## C=CC[N+]1(C2CC3C4CCC5CC(O)C(N6CCOCC6)CC5(C)C4CCC3(C)C2OC(C)=O)CCCC1 (stereo not drawn) (library stock concentration (final ~1000-fold dilution): 10 mM)
RAW-Dual [2]; agonist: LPS (TLR4) 0.1 ug/mL
  NF-kB SEAP reporter activity: 1.42
RAW-Dual [2]; [6]
  NF-kB SEAP reporter activity: 0.925
RAW-Dual [2]; [7]
  NF-kB SEAP reporter activity: 1.1
RAW-Dual [2]; [8]
  NF-kB SEAP reporter activity: 1.15

## CCC(CC)n1ccc2c(C(=O)NCc3c(C)cc(C)[nH]c3=O)cc(C#N)cc21
RAW-Dual [1]; [4]
  NF-kB SEAP reporter activity: 0.981
RAW-Dual [1]; [5]
  NF-kB SEAP reporter activity: 0.985

## CCC(CC)n1ccc2c(C(=O)NCc3c(C)cc(C)[nH]c3=O)cc(C#N)cc21 (library stock concentration (final ~1000-fold dilution): 10 mM)
RAW-Dual [2]; agonist: LPS (TLR4) 0.1 ug/mL
  NF-kB SEAP reporter activity: 1.44
RAW-Dual [2]; [6]
  NF-kB SEAP reporter activity: 1.08
RAW-Dual [2]; [7]
  NF-kB SEAP reporter activity: 1.11
RAW-Dual [2]; [8]
  NF-kB SEAP reporter activity: 0.998

## CCNC(=O)c1[nH]nc(-c2cc(Cl)c(O)cc2O)c1-c1ccc(OC)cc1
RAW-Dual [1]; [4]
  NF-kB SEAP reporter activity: 0.158
RAW-Dual [1]; [5]
  NF-kB SEAP reporter activity: 0.396

## CCNC(=O)c1[nH]nc(-c2cc(Cl)c(O)cc2O)c1-c1ccc(OC)cc1 (library stock concentration (final ~1000-fold dilution): 10 mM)
RAW-Dual [2]; agonist: LPS (TLR4) 0.1 ug/mL
  NF-kB SEAP reporter activity: 0.211
RAW-Dual [2]; [6]
  NF-kB SEAP reporter activity: 0.204
RAW-Dual [2]; [7]
  NF-kB SEAP reporter activity: 0.0641
RAW-Dual [2]; [8]
  NF-kB SEAP reporter activity: 0.133

## Cl.NC(=O)c1cnc(NC2CCCCC2N)nc1Nc1cccc(-n2nccn2)c1 (stereo not drawn)
RAW-Dual [1]; cytotoxicity flag (confluency mask): cytotoxic (confluency <70% of control), agonist: Imiquimod (TLR7) […]
  NF-kB SEAP reporter activity: 0.258
RAW-Dual [1]; cytotoxicity flag (confluency mask): cytotoxic (confluency <70% of control), agonist: MPLA (TLR4) […]
  NF-kB SEAP reporter activity: 0.336

## Cl.NC(=O)c1cnc(NC2CCCCC2N)nc1Nc1cccc(-n2nccn2)c1 (stereo not drawn) (library stock concentration (final ~1000-fold dilution): 10 mM)
RAW-Dual [3]; agonist: LPS (TLR4) 0.1 ug/mL
  NF-kB SEAP reporter activity: 0.377
RAW-Dual [3]; [6]
  NF-kB SEAP reporter activity: 0.204
RAW-Dual [3]; [7]
  NF-kB SEAP reporter activity: 0.315
RAW-Dual [3]; [8]
  NF-kB SEAP reporter activity: 0.248

## COc1ccc(C(=C2C(=O)Nc3ccccc32)c2ccc(OC)cc2)cc1
RAW-Dual [1]; [4]
  NF-kB SEAP reporter activity: 0.748
RAW-Dual [1]; [5]
  NF-kB SEAP reporter activity: 0.978

## COc1ccc(C(=C2C(=O)Nc3ccccc32)c2ccc(OC)cc2)cc1 (library stock concentration (final ~1000-fold dilution): 10 mM)
RAW-Dual [2]; agonist: LPS (TLR4) 0.1 ug/mL
  NF-kB SEAP reporter activity: 1.04
RAW-Dual [2]; [6]
  NF-kB SEAP reporter activity: 0.585
RAW-Dual [2]; [7]
  NF-kB SEAP reporter activity: 0.692
RAW-Dual [2]; [8]
  NF-kB SEAP reporter activity: 0.323

## CCCN(CCC)S(=O)(=O)c1ccc(C(=O)O)cc1
RAW-Dual [1]; [4]
  NF-kB SEAP reporter activity: 0.908
RAW-Dual [1]; [5]
  NF-kB SEAP reporter activity: 1.07

## CCCN(CCC)S(=O)(=O)c1ccc(C(=O)O)cc1 (library stock concentration (final ~1000-fold dilution): 10 mM)
RAW-Dual [2]; agonist: LPS (TLR4) 0.1 ug/mL
  NF-kB SEAP reporter activity: 1.13
RAW-Dual [2]; [6]
  NF-kB SEAP reporter activity: 0.969
RAW-Dual [2]; [7]
  NF-kB SEAP reporter activity: 1.11
RAW-Dual [2]; [8]
  NF-kB SEAP reporter activity: 0.965

## O=c1[nH]c(=S)[nH]c(-c2ccccc2)c1Cc1c(O)ccc2ccccc12
RAW-Dual [1]; [4]
  NF-kB SEAP reporter activity: 1.16
RAW-Dual [1]; [5]
  NF-kB SEAP reporter activity: 1.19

## O=c1[nH]c(=S)[nH]c(-c2ccccc2)c1Cc1c(O)ccc2ccccc12 (library stock concentration (final ~1000-fold dilution): 10 mM)
RAW-Dual [2]; agonist: LPS (TLR4) 0.1 ug/mL
  NF-kB SEAP reporter activity: 1.17
RAW-Dual [2]; [6]
  NF-kB SEAP reporter activity: 1.27
RAW-Dual [2]; [7]
  NF-kB SEAP reporter activity: 1.03
RAW-Dual [2]; [8]
  NF-kB SEAP reporter activity: 1.25
